The list shows a part of the results. At the low end of the ranking, values are background and their order means little.

This experiment deals with MAX:MAX (p21) (UniProt P61244-2). Kind of experiment: protein-binding microarray (anti-MAX antibody). To be noted: PBM: 15 mM Tris-HCl pH 7.5, 100 mM KCl, 0.075% NP40, 7.5 mM beta-mercaptoethanol, 375 ng/ul BSA, 8 ng/ul poly(dA-dT):(dA-dT), 550 ng complex, 60 min, room …; high values mean tight binding; double strand, one strand shown; sequences stand for … in CCGGC…TTAATAGCTAAGATTACTATATCGACG
TGAAAATCGGTA came in with a binding signal (log2 normalized fluorescence) of -1.16.
With TGAGCCACGGTA the figure was 0.429; with TGATAGGTGGGA, -0.519; with TGAGAGCCTGTA, -0.287.
Under TGATCCTGCGTA stands -0.57; under TGAAGGAGAGTA, -0.816.
As for TGAGGGAAGGTA, the binding signal (log2 normalized fluorescence) is -0.096.
With TGACCAGAAGTA the figure was -0.468.
Under TGACACTAAGTA stands -0.152.
Under TGATTGTAGGTA stands -0.799.
TGAACGAATGTA returned a binding signal (log2 normalized fluorescence) of -0.153.
Turning to CGACACCTGTTA, the binding signal (log2 normalized fluorescence) was determined as 2.63.
The sequence TGAGAGAGCGTA showed a binding signal (log2 normalized fluorescence) of -0.75.
Under TGATGACAGGTA stands 0.172; under TGGAGCGTGGTA, 2.72; under TGATTACCAGTA, -0.743.
Sequence TGAGCGGGGGTA registered a binding signal (log2 normalized fluorescence) of 1.52.
With TTTCCCGTGGTA the figure was 1.92.
For the sequence TGACGAGAGGTA, the binding signal (log2 normalized fluorescence) was -0.158.
Under TGAACGAAAGTA stands -0.654; under TGACACGTGCTC, 3.24.
For the sequence TGATCGGGCGTA, the binding signal (log2 normalized fluorescence) is -1.
With TGATCTGTAGTA the figure was -0.886; with TTACACGTGGAA, 3.37.
Under TGAGCGGTAGTA stands -0.714; under TGACATCCCGTA, 0.192.
Turning to TGACCTTCCGTA, the binding signal (log2 normalized fluorescence) is -0.7.
With TGAGACCTGGTA, the binding signal (log2 normalized fluorescence) was -0.5.
Under ATACACTTGGTA stands 1.54; under TGAATCACGGTA, 0.64.
Under TACGACGTGGTA stands 2.57; under TGACCAATCGTA, -0.754; under TGACACGACTTA, 1.22.
Under TGACCATTGGTA stands -0.0632; under TGATTATACGTA, -0.927.
TGACCGATCGTA yielded a binding signal (log2 normalized fluorescence) of -0.59.
Under TGGCATGTGGTA stands 3.04; under TGGCACGTGGTA, 3.26; under TGAAAAGGCGTA, -0.503.
With TGAGTTACGGTA the figure was -0.516; with TGATTTCGTGTA, -0.361.
With TGAAGACAGGTA the figure was -0.186.
TGAATCTCAGTA showed a binding signal (log2 normalized fluorescence) of -1.13.
Under TGCCATGTGGTT stands 3.15.
Under CGCGACGTGGTA stands 2.79; under TGACTCAGAGTA, -0.668; under TGGCACGTGCTA, 3.25.
Under TGACCTCTGGTA stands -0.818; under TGATGCTGCGTA, 0.117; under TGACTGAAAGTA, -0.626.
The sequence TGATTTATAGTA came in with a binding signal (log2 normalized fluorescence) of -1.19.
Under TGACGTGCCGTA stands 1.03.
On to TGAATAAACGTA, for which the binding signal (log2 normalized fluorescence) was -0.637.
TGACAACCGGTA had a binding signal (log2 normalized fluorescence) of -0.183.
With TGAAGTGTTGTA the figure was -0.217; with ACTTATAGATTT, -0.453.
On to TGAATCCCGGTA, for which the binding signal (log2 normalized fluorescence) was -1.15.
As for TGAGGTCTCGTA, the binding signal (log2 normalized fluorescence) was -0.936.
In turn, TGATAGACAGTA came in with a binding signal (log2 normalized fluorescence) of -0.945.
For TGAAGACTTGTA, the binding signal (log2 normalized fluorescence) was -0.873.
TGACAGAGTGTA returned a binding signal (log2 normalized fluorescence) of -0.154.
Under TGAGTCCAAGTA stands -1.14.
In the case of TGATTCCAGGTA, the binding signal (log2 normalized fluorescence) was -0.706.
For TGAATTTCTGTA, the binding signal (log2 normalized fluorescence) was -1.02.
With TGAGCGATAGTA the figure was -1; with TGATGAGTGGTA, -0.0585.
On to TGACGCGTGGTA, for which the binding signal (log2 normalized fluorescence) was found to be 3.
TGATGTCTCGTA: the binding signal (log2 normalized fluorescence) was -0.00586.
In turn, TGATCATGCGTA displayed a binding signal (log2 normalized fluorescence) of 2.71.
Take TGAAAAGTGGTA: the binding signal (log2 normalized fluorescence) is -0.645.
With TGACAGTTTGTA the figure was -0.554; with TGACCACAAGTA, 1.12.
TGAAGCAGGGTA gave a binding signal (log2 normalized fluorescence) of -0.0603.
For the sequence TGAGCTAAAGTA, the binding signal (log2 normalized fluorescence) is -1.02.
In the case of TGAATGTAGGTA, the binding signal (log2 normalized fluorescence) worked out at 0.306.
With TGATTGGCTGTA the figure was -0.902; with TGACACGTATGA, 1.54.
With TGTCACGTGGAA, the binding signal (log2 normalized fluorescence) is 3.19.
In turn, TGACTTAAAGTA gave a binding signal (log2 normalized fluorescence) of -0.586.
TGAGACGATGTA: the binding signal (log2 normalized fluorescence) was -0.696.
Under TGACACGAGGCG stands 3.03; under TGACCCCGAGTA, -0.23.
With TGAAAGTGCGTA the figure was 0.165.
Sequence TGAATAGGCGTA gave a binding signal (log2 normalized fluorescence) of -1.15.
Consider TGATTCTCCGTA, for which the binding signal (log2 normalized fluorescence) was -1.09.
With TGACACGTGTAA the figure was 3.24.
The sequence TGACTTGGGGTA had a binding signal (log2 normalized fluorescence) of -0.117.

(Values after article PMC5515408.)
